The other results are listed elsewhere or left out.
Legend:
Assay in all cases: glycan array binding signal (z-score within array); higher = stronger binding
Settings in all cases: glycan notation: IUPAC condensed, linker removed
Kdn(a2-3)Gal(b1-4)Glc = biological target: Kdn(a2-3)Gal(b1-4)Glc
In short: (§1)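 The binding signal is a Z-score computed within each array and averaged over linkers. Arrays of the same protein sequence at different concentrations or buffers were also averaged together. Data originate from 3228 arrays in the Consortium for Functional Glycomics database, kept only where the protein sequence was available.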

Kdn(a2-3)Gal(b1-4)GlcNAc = biological target: Kdn(a2-3)Gal(b1-4)GlcNAc
In short: as §1

[1] = biological target: Kdn(a2-3)Gal(b1-4)[Fuc(a1-3)]GlcNAc
In short: as §1

Kdn(a2-6)Gal(b1-4)GlcNAc = biological target: Kdn(a2-6)Gal(b1-4)GlcNAc
In short: as §1

[2] = biological target: Man(a1-2)Man(a1-2)Man(a1-3)Man
In short: as §1

[3] = biological target: Man(a1-2)Man(a1-2)Man(a1-6)[Man(a1-3)]Man
In short: as §1

Man(a1-2)Man(a1-3)Man = biological target: Man(a1-2)Man(a1-3)Man
In short: as §1

[4] = biological target: Man(a1-2)Man(a1-3)[Man(a1-2)Man(a1-6)]Man
In short: as §1

[5] = biological target: Man(a1-2)Man(a1-3)[Man(a1-2)Man(a1-6)]Man(a1-6)[Man(a1-2)Man(a1-2)Man(a1-3)]Man
In short: as §1

[6] = biological target: Man(a1-2)Man(a1-3)[Man(a1-2)Man(a1-6)]Man(a1-6)[Man(a1-2)Man(a1-2)Man(a1-3)]Man(b1-4)GlcNAc(b1-4)GlcNAc
In short: as §1

[7] = biological target: Man(a1-2)Man(a1-3)[Man(a1-6)]Man(a1-6)[Man(a1-2)Man(a1-3)]Man(b1-4)GlcNAc(b1-4)GlcNAc
In short: as §1

[8] = biological target: Man(a1-2)Man(a1-6)[Man(a1-3)]Man(a1-6)[Man(a1-2)Man(a1-2)Man(a1-3)]Man
In short: as §1

[9] = biological target: Man(a1-2)Man(a1-6)[Man(a1-3)]Man(a1-6)[Man(a1-2)Man(a1-2)Man(a1-3)]Man(b1-4)GlcNAc(b1-4)GlcNAc
In short: as §1

Man(a1-3)[Man(a1-6)]Man = biological target: Man(a1-3)[Man(a1-6)]Man
In short: as §1

[10] = biological target: Man(a1-3)[Man(a1-6)]Man(a1-6)[Man(a1-2)Man(a1-3)]Man(b1-4)GlcNAc(b1-4)GlcNAc
In short: as §1

[11] = biological target: Man(a1-3)[Man(a1-6)]Man(a1-6)[Man(a1-3)]Man
In short: as §1

[12] = biological target: Man(a1-3)[Man(a1-6)]Man(a1-6)[Man(a1-3)]Man(b1-4)GlcNAc(b1-4)GlcNAc
In short: as §1

[13] = biological target: Man(a1-3)[Man(a1-6)]Man(b1-4)GlcNAc(b1-4)GlcNAc
In short: as §1

[14] = biological target: Man(a1-3)[Man(a1-6)]Man(b1-4)GlcNAc(b1-4)[Fuc(a1-6)]GlcNAc
In short: as §1

Man(a1-6)Man = biological target: Man(a1-6)Man
In short: as §1

Man(b1-4)GlcNAc = biological target: Man(b1-4)GlcNAc
In short: as §1

MurNAc(b1-4)GlcNAc = biological target: MurNAc(b1-4)GlcNAc
In short: as §1

Neu5Ac(a2-3)Gal = biological target: Neu5Ac(a2-3)Gal
In short: as §1

[15] = biological target: Neu5Ac(a2-3)Gal(b1-3)GalNAc
In short: as §1

[16] = biological target: Neu5Ac(a2-3)Gal(b1-3)GalNAc(b1-3)Gal(a1-4)Gal(b1-4)Glc
In short: as §1

[17] = biological target: Neu5Ac(a2-3)Gal(b1-3)GalNAc(b1-4)[Neu5Ac(a2-3)]Gal(b1-4)Glc
In short: as §1

[18] = biological target: Neu5Ac(a2-3)Gal(b1-3)GalNAc(b1-4)[Neu5Ac(a2-8)Neu5Ac(a2-3)]Gal(b1-4)Glc
In short: as §1

[19] = biological target: Neu5Ac(a2-3)Gal(b1-3)GalNAc6S
In short: as §1

[20] = biological target: Neu5Ac(a2-3)Gal(b1-3)GlcNAc
In short: as §1

[21] = biological target: Neu5Ac(a2-3)Gal(b1-3)GlcNAc(b1-2)Man
In short: as §1

[22] = biological target: Neu5Ac(a2-3)Gal(b1-3)GlcNAc(b1-2)Man(a1-3)[GlcNAc(b1-4)][Neu5Ac(a2-3)Gal(b1-3)GlcNAc(b1-2)Man(a1-6)]Man(b1-4)GlcNAc(b1-4)GlcNAc
In short: as §1

[23] = biological target: Neu5Ac(a2-3)Gal(b1-3)GlcNAc(b1-2)Man(a1-3)[Neu5Ac(a2-3)Gal(b1-3)GlcNAc(b1-2)Man(a1-6)]Man(b1-4)GlcNAc(b1-4)GlcNAc
In short: as §1

[24] = biological target: Neu5Ac(a2-3)Gal(b1-3)GlcNAc(b1-3)Gal(b1-3)GlcNAc
In short: as §1

[25] = biological target: Neu5Ac(a2-3)Gal(b1-3)GlcNAc(b1-3)Gal(b1-4)GlcNAc
In short: as §1

[26] = biological target: Neu5Ac(a2-3)Gal(b1-3)GlcNAc(b1-3)GalNAc
In short: as §1

[27] = biological target: Neu5Ac(a2-3)Gal(b1-3)GlcNAc(b1-4)Gal(b1-4)Glc
In short: as §1

[28] = biological target: Neu5Ac(a2-3)Gal(b1-3)GlcNAc(b1-6)GalNAc
In short: as §1

[29] = biological target: Neu5Ac(a2-3)Gal(b1-3)GlcNAc6S
In short: as §1

B1: GS14009A-pdi-495-27-495 (Parabacteroides distasonis) (protein)
chain: FEEVNTDPDSPTDVPTTNLLAYSLYYTSYRLYDRWFAMDEPMTFCGYASKMTYIDESRYNFRTGVQDTNWEYLYRILNNLKDIEKRATFNETPNMLNVSKVMQVHLMQVATDRWRDVPYTDAAKMTDGILQPKYDKQEDIYPGLLATLKEAADGFADGGSDDLGEGDLLFGGDIEKWQRYCNSMRLRLAMRISEVSPALAKETVEEVMGNPTKYPIMESNDDNAFFWWIGTDPNYYEPMADGYRTRKTEYCAADVIVDHMNTREDPRRSSYFQPTKESVEAGEPKYVGYTIGAKANAVASKYSIWGARFFTDLAGFSPYMRVAEPWFCVAEASMLGWNTGISAEDAYNKAVTYSMEENSVSAEDIADYLANAGKFTNDKKQIYYEEWVAMFKQGMEGWSLYRRTGVPDNLYPAPGRPANYSNHNVPPFRSPYPDKERNLNNANCAPFDAEVVDNLWGKQMWWDTRTGVH
Q: How did the “glycan array binding signal (z-score)” value (Kdn(a2-3)Gal(b1-4)Glc) turn out when B1 was run?
A: 0.829

Q: What about the “glycan array binding signal (z-score)” value (Kdn(a2-3)Gal(b1-4)GlcNAc) of the same binder?
A: -0.615

Q: And the “glycan array binding signal (z-score)” value [1]?
A: 0.379

Q: And the “glycan array binding signal (z-score)” value (Kdn(a2-6)Gal(b1-4)GlcNAc)?
A: -0.168

Q: And the “glycan array binding signal (z-score)” value [2]?
A: -0.58

Q: What about the “glycan array binding signal (z-score)” value [3] of the same binder?
A: -0.298

Q: What about the “glycan array binding signal (z-score)” value (Man(a1-2)Man(a1-3)Man) of the same binder?
A: -0.63

Q: And the “glycan array binding signal (z-score)” value [4]?
A: -0.461

Q: And the “glycan array binding signal (z-score)” value [5]?
A: -0.522

Q: And the “glycan array binding signal (z-score)” value [6]?
A: 0.436

Q: And the “glycan array binding signal (z-score)” value [7]?
A: 0.95

Q: What about the “glycan array binding signal (z-score)” value [8] of the same binder?
A: -0.204

Q: What about the “glycan array binding signal (z-score)” value [9] of the same binder?
A: -0.815

Q: What about the “glycan array binding signal (z-score)” value (Man(a1-3)[Man(a1-6)]Man) of the same binder?
A: 0.286

Q: What about the “glycan array binding signal (z-score)” value [10] of the same binder?
A: 0.546

Q: What about the “glycan array binding signal (z-score)” value [11] of the same binder?
A: 0.839

Q: And the “glycan array binding signal (z-score)” value [12]?
A: -0.248

Q: What about the “glycan array binding signal (z-score)” value [13] of the same binder?
A: -0.313

Q: And the “glycan array binding signal (z-score)” value [14]?
A: -0.62

Q: And the “glycan array binding signal (z-score)” value (Man(a1-6)Man)?
A: -0.213

Q: What about the “glycan array binding signal (z-score)” value (Man(b1-4)GlcNAc) of the same binder?
A: 0.43

Q: And the “glycan array binding signal (z-score)” value (MurNAc(b1-4)GlcNAc)?
A: -0.393

Q: And the “glycan array binding signal (z-score)” value (Neu5Ac(a2-3)Gal)?
A: -0.987

Q: What about the “glycan array binding signal (z-score)” value [15] of the same binder?
A: -0.605

Q: And the “glycan array binding signal (z-score)” value [16]?
A: -0.008

Q: And the “glycan array binding signal (z-score)” value [17]?
A: -0.111

Q: And the “glycan array binding signal (z-score)” value [18]?
A: -0.25

Q: And the “glycan array binding signal (z-score)” value [19]?
A: -0.004

Q: And the “glycan array binding signal (z-score)” value [20]?
A: -0.243

Q: What about the “glycan array binding signal (z-score)” value [21] of the same binder?
A: -0.522

Q: And the “glycan array binding signal (z-score)” value [22]?
A: -0.255

Q: And the “glycan array binding signal (z-score)” value [23]?
A: -0.174

Q: What about the “glycan array binding signal (z-score)” value [24] of the same binder?
A: -0.682

Q: What about the “glycan array binding signal (z-score)” value [25] of the same binder?
A: -0.404

Q: And the “glycan array binding signal (z-score)” value [26]?
A: -0.635

Q: And the “glycan array binding signal (z-score)” value [27]?
A: -0.576

Q: What about the “glycan array binding signal (z-score)” value [28] of the same binder?
A: -0.205

Q: And the “glycan array binding signal (z-score)” value [29]?
A: -0.08

Reference: the supplement of paper PMC8728848
